Positions count from the first letter of the chain named.
T1: cynomolgus IL-11 (cynomolgus, UniProt P20808 22-199)
T1 sequence: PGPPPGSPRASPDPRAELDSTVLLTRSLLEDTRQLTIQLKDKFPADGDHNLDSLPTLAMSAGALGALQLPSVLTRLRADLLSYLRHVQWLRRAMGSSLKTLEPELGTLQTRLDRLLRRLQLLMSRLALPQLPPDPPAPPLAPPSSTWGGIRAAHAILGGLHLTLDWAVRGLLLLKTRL

T2: rat IL-11 (rat, UniProt Q99MF5 22-199)
T2 sequence: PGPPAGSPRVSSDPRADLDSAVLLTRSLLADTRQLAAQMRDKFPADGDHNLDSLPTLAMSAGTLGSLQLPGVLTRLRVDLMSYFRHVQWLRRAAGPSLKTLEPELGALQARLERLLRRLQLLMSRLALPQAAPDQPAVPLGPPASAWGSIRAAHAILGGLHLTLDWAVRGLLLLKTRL

T3: murine IL-11 (mouse, UniProt P47873 22-199)
T3 sequence: T2 sequence with N50S, F84L, A94G, A137V, V138I

T4: human IL-11 (human, UniProt P20809 22-199)
T4 sequence: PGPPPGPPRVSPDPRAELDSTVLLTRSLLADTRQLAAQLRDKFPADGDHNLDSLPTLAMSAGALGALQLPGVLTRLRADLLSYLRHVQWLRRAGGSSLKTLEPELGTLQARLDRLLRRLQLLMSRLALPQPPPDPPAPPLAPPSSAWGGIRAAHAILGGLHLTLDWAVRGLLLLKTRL

B1: TPP-30003 (antibody, human IgG1, lambda)
heavy: QVQLVESGGGVVQPGRSLRLSCAASGFTFSHYDMHWVRQAPGKGLEWVAVISYEGSVKFYADSVKGRFTISRDNSKNTLYLQMNSLRAEDTAVYYCARTPGFHFDYWGQGTLVTVSSASTKGPSVFPLAPSSKSTSGGTAALGCLVKDYFPEPVTVSWNSGALTSGVHTFPAVLQSSGLYSLSSVVTVPSSSLGTQTYICNVNHKPSNTKVDKKVEPKSCDKTHTCPPCPAPPVAGPSVFLFPPKPKDTLMISRTPEVTCVVVGVSHEDPEVKFNWYVDGVEVHNAKTKPREEQYNSTYRVVSVLTVLHQDWLNGKEYKCKVSNKQLPSPIEKTISKAKGQPREPQVYTLPPSRDELTKNQVSLTCLVKGFYPSDIAVEWESNGQPENNYKTTPPVLDSDGSFFLYSKLTVDKSRWQQGNVFSCSVMHEALHNHYTQKSLSLSPGK
light: QSVLTQPPSASGTPGQRVTISCSGSSSNIGSNYVNWYQQLPGTAPKLLIYYDDLRPSGVPDRFSGSKSGTSASLAISGLRSEDEADYYCSAWDDSLSGVVFGGGTKLTVLGQPKAAPSVTLFPPSSEELQANKATLVCLISDFYPGAVTVAWKADSSPVKAGVETTTPSKQSNNKYAASSYLSLTPEQWKSHRSYSCQVTHEGSTVEKTVAPTECS
notes: hIgG1, Lambda (HS variant)
B2: TPP-30002 (antibody, human IgG1, lambda)
heavy: B1 heavy with V57N
light: B1 light
notes: hIgG1, Lambda (HS variant)
B3: TPP-29680 (antibody, human IgG1, lambda)
heavy: B1 heavy with E54H
light: B1 light with N35S
notes: hIgG1, Lambda (HS variant)
B4: TPP-30000 (antibody, human IgG1, lambda)
heavy: B1 heavy with E54S, F102S
light: B1 light
notes: hIgG1, Lambda (HS variant)

Target: T1, cynomolgus IL-11
Assay: cell-based or functional assay

Point of comparison: B1, “RGA Efficacy (%)” value 97.1%. Against it:
- B2 — lower, 72.8%
- B3 — higher, 97.5%
- B4 — lower, 64.6%

B3 was tested, and the “RGA IC50” value was 0.29 nM.

Target: T2, rat IL-11
Assay: cell-based or functional assay

Point of comparison: B1, “RGA Efficacy (%)” value 99.5%. Against it:
- B2 — lower, 99.1%
- B3 — lower, 98.5%
- B4 — higher, 100%

Point of comparison: B4, “RGA IC50” value 1.4 nM. Against it:
- B1 — 1.9-fold lower, 0.72 nM
- B2 — within 1.5-fold, 1.1 nM
- B3 — within 1.5-fold, 1.1 nM

Target: T3, murine IL-11
Assay: cell-based or functional assay

Point of comparison: B3, “RGA Efficacy (%)” value 96.2%. Against it:
- B1 — higher, 97.1%
- B2 — higher, 97.2%
- B4 — higher, 97.9%

Point of comparison: B1, “RGA IC50” value 0.75 nM. Against it:
- B3 — within 1.5-fold, 0.66 nM
- B4 — within 1.5-fold, 0.66 nM

Target: T4, human IL-11
Assay: cell-based or functional assay

Point of comparison: B4, “RGA Efficacy (%)” value 97.8%. Against it:
- B1 — higher, 100%
- B2 — lower, 96.5%
- B3 — higher, 98.4%

Point of comparison: B1, “RGA IC50” value 1.8 nM. Against it:
- B2 — 1.5-fold lower, 1.2 nM
- B3 — within 1.5-fold, 1.5 nM
- B4 — the same, 1.8 nM

Target: T1, cynomolgus IL-11
Assay: SPR 37 C, antibody captured, IL-11 as analyte
Experimental: (§1) To assess the binding kinetics and affinity of anti-IL-11 antibodies as well as their species cross-reactivity profile, binding assays were conducted using surface plasmon resonance (SPR). Binding assays were performed on a Biacore T200 instrument or on a Biacore 8K+ instrument (Cytiva) at 37° C. using assay buffer HBS EP+, 300 mM NaCl, 1 mg/ml BSA, 0.05% NaN3. Antibodies were captured either via anti-human Fc IgGs (“Human antibody capture kit”, Order No. BR100839, Cytiva) or via anti-mouse Fc IgGs (“Mouse antibody capture kit, Order No. BR100383, Cytiva) covalently amine coupled to a Series S CM5 sensor chip (Cytiva) depending on the isotype. The amine coupling was carried out according to the manufacturer's instructions using 1-ethyl-3-(3-dimethylaminopropyl) carbodiimide hydrochloride (EDC), N-hydroxysuccinimide (NHS) and ethanolamine HCl, pH 8.5 (“Amine Coupling Kit” BR-1000-50, Cytiva.). Human, mouse, cynomolgus or rat IL-11 was used as analyte at several dilutions within the concentration range from 0.05-200 nM. For binding assays with only one concentration 200 nM IL-11 was used. The sensor surface was regenerated with glycine pH 1.7 after each antigen injection. Obtained sensorgrams were double referenced (subtraction of reference flow cell signal and buffer injection) and were fitted to a 1:1 Langmuir binding model to derive kinetic data using the Biacore T200 Evaluation software or the Biacore Insight software. If no value is reported, there was either no binding or very low binding and multiphasic binding behavior. Values below 1E-12 were considered to be below the dynamic range of the instrument and set to <1E-12.

Point of comparison: B1, Kd 0.49 nM. Against it:
- B2 — 20-fold higher, 10 nM
- B3 — within 1.5-fold, 0.35 nM
- B4 — 65-fold higher, 32 nM

Target: T2, rat IL-11
Assay: SPR 37 C, antibody captured, IL-11 as analyte
Experimental: as §1

Point of comparison: B3, Kd 0.009 nM. Against it:
- B1 — within 1.5-fold, 0.0067 nM
- B2 — 20-fold higher, 0.18 nM
- B4 — 23-fold higher, 0.21 nM

Target: T3, murine IL-11
Assay: SPR 37 C, antibody captured, IL-11 as analyte
Experimental: as §1

Point of comparison: B4, Kd 0.039 nM. Against it:
- B1 — lower, < 0.001 nM
- B2 — 3-fold lower, 0.013 nM
- B3 — lower, < 0.001 nM

Target: T4, human IL-11
Assay: SPR 37 C, antibody captured, IL-11 as analyte
Experimental: as §1

Point of comparison: B2, Kd 0.0074 nM. Against it:
- B1 — lower, < 0.001 nM
- B3 — 4.6-fold lower, 0.0016 nM
- B4 — 2.4-fold higher, 0.018 nM

Target: T3, murine IL-11
Assay: Di-complex ELISA, competitor murine IL11RA-Fc on coated IL-11

Point of comparison: B4, “Efficacy (%)” value 3.5%. Against it:
- B1 — higher, 4.1%
- B2 — lower, -3.3%
- B3 — higher, 8.6%

Target: T4, human IL-11
Assay: as above

Point of comparison: B3, “Efficacy (%)” value 12.2%. Against it:
- B1 — lower, 8.4%
- B2 — lower, 3.5%
- B4 — lower, 0%

Source: US20240317847A1 (Bayer, published 2024)
